{"source": "PubChem BioAssay AID504332", "about": "(National Center for Advancing Translational Sciences (NCATS), 2011)", "note": "The campaign covered roughly 350,000 compounds. About 31,000 (8.9%) were called active. Inconclusive results, whose numbers are uncertain, are shown with a selection of clear calls. The call rests on the fitted dose curve; in most records, active means well fitted inhibition curve with a large enough effect; inconclusive means small, poorly fitted or top-dose-only effect; inactive means no such curve, though single readings can be large or run the other way. A potency beside an inconclusive call is a rough fit, not a confirmed value. On the % scale 0 is the no-effect control and ±100 the full control effect; potency means the concentration at half of the fitted maximal effect; tags describe the fitted curve by direction and shape.", "data": [{"biological_target": "Histone-lysine N-methyltransferase EHMT2 (Homo sapiens) (UniProt Q96KQ7)", "sequence (Q96KQ7 whole entry, looked up)": "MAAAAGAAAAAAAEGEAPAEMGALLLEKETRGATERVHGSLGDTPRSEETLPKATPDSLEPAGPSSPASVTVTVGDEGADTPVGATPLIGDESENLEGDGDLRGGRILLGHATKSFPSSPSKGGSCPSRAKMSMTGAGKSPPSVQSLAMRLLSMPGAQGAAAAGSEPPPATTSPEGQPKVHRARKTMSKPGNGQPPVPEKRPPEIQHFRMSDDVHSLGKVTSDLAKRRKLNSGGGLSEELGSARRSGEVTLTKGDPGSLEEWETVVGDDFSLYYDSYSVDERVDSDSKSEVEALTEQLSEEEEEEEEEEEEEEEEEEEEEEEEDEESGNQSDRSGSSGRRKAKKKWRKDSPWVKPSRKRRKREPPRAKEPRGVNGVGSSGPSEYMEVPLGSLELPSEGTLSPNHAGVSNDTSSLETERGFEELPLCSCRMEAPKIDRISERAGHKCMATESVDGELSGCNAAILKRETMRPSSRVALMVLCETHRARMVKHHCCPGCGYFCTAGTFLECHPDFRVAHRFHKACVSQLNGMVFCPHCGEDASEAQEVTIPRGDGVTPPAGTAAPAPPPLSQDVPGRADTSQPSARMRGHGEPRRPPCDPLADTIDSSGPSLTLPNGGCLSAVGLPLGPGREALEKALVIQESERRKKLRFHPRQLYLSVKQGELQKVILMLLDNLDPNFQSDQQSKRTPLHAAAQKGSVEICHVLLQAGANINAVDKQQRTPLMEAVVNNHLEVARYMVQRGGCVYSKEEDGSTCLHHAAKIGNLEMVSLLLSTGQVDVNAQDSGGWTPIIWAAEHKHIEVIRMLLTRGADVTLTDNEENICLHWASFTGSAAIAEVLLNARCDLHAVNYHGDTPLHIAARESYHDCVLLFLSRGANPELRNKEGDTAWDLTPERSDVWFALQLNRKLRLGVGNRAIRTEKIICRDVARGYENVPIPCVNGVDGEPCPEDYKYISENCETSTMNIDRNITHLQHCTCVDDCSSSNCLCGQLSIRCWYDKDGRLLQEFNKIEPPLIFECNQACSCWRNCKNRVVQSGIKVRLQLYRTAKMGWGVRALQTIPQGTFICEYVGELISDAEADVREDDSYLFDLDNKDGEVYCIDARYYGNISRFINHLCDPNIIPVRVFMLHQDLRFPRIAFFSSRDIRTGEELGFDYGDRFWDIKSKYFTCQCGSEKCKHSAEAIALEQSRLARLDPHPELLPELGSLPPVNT", "assay": "qHTS Assay for Inhibitors of Histone Lysine Methyltransferase G9a; further: nearly all actives have a fitted effect of over 75% in size", "details": "G9a H3K9 monomethylation, AlphaScreen, 2 h; activity, negative = inhibition: at 59 µM (top of the series) unless noted", "how_it_was_run": "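Enzyme 20 nM + cpd, 15 min RT; add b-H3K9 pep 500 nM / SAM 20 uM; 2 h RT; anti-H3K9me1 Ab 0.5 ug/mL + SA donor / anti-rabbit acceptor beads 20 ug/mL each, 10 min; AlphaScreen read.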", "values": [{"smiles": "Cc1ccc(S(=O)(=O)C(C#N)c2nc3ccccc3nc2OCCO)cc1", "note": "(stereo unspecified)", "Potency": "inconclusive: 89.1 µM [inhibitor, single point]"}, {"smiles": "O=C(N1CCN(c2ccccn2)CC1)C(Cl)(Cl)Cl", "activity, negative = inhibition": "inactive: -26.8%"}, {"smiles": "O=C(Nc1ccc2nn(-c3ccccc3)nc2c1)c1ccco1", "Potency": "inconclusive: 39.8 µM [inhibitor, single point]"}, {"smiles": "CCCCOc1ccc(/C=C/C2=CC(C)(C)NC(=S)N2)cc1OCC", "Potency": "inconclusive: 35.5 µM [inhibitor, partial curve]"}, {"smiles": "COC(=O)CSc1nc2c(c(-c3ccc(C)o3)c1C#N)CCCC2", "activity, negative = inhibition": "inconclusive: -75.2% [inhibitor]"}, {"smiles": "CCOC(=O)c1c(NC(=O)CSc2nnnn2C)sc(CC)c1C", "Potency": "inconclusive: 89.1 µM [inhibitor, single point]"}, {"smiles": "CCOc1ccc(/C=C2\\SC(=O)N(CCNC(=O)C3COc4ccccc4O3)C2=O)cc1OC", "note": "(stereo unspecified)", "Potency": "inconclusive: 7.08 µM [inhibitor, full curve]"}, {"smiles": "CN(C)CCNC(=S)Nc1ccc(Cl)cc1", "Potency": "inconclusive: 20 µM [inhibitor, single point]"}, {"smiles": "O=C(CSc1cn(CC(=O)N2CCCCC2)c2ccccc12)NCc1ccc(F)cc1", "activity, negative = inhibition": "inactive: -30.2%"}, {"smiles": "CCOc1ccc(NS(=O)(=O)c2ccc3[nH]cc(C(=O)NCc4ccco4)c(=O)c3c2)cc1", "Potency": "inconclusive: 22.4 µM [inhibitor, partial curve, poor fit]"}, {"smiles": "Cc1ccc(S(=O)(=O)Nc2ccc(-c3cn4ccc(C)cc4n3)cc2)cc1", "Potency": "active: 44.7 µM"}, {"smiles": "Cc1cc(C)c(N2CCN(S(=O)(=O)N3CCCCCC3)CC2)c(C)c1", "Potency": "inconclusive: 6.31 µM [inhibitor, single point]"}, {"smiles": "COc1ccc(S(=O)(=O)N2CCCCC2)cc1NC(=O)Cc1ccsc1", "activity, negative = inhibition": "inactive: 21.7%"}, {"smiles": "CCOc1ccccc1C1CC(=O)NC(SCC)=C1C#N", "note": "(stereo unspecified)", "Potency": "inconclusive: 50.1 µM [inhibitor, partial curve, poor fit]"}, {"smiles": "O=c1cc(CN2CCN(S(=O)(=O)c3ccc(Cl)cc3)CC2)nc2sc(-c3ccccc3F)nn12", "activity, negative = inhibition": "inactive: 13.6%"}, {"smiles": "O=S(=O)(NCCc1ccccc1)c1ccc(N2CCCCS2(=O)=O)cc1", "activity, negative = inhibition": "inactive: -1.78%"}, {"smiles": "CCSc1nc(=O)n(-c2ccccc2)c(C)c1C(C)=O", "Potency": "inconclusive: 39.8 µM [inhibitor, single point]"}, {"smiles": "CC(=Nc1ccc(Br)cc1)c1sc2ccccc2c1O", "activity, negative = inhibition": "inactive: 89% [at 102 µM]"}, {"smiles": "CSCCC(NC(=O)c1ccco1)C(=O)N(C)CC(=O)Nc1ccccc1Br", "note": "(stereo unspecified)", "activity, negative = inhibition": "inactive: 8.26% [at 102 µM]"}, {"smiles": "C/C(=N\\NC(=O)c1ccn(C)n1)c1cccc(NC(=O)c2ccncc2)c1", "activity, negative = inhibition": "inactive: 18.4% [at 102 µM]"}, {"smiles": "COc1ccc(C(=O)N2CCN(S(=O)(=O)c3ccccc3)CC2)c(OC)c1", "activity, negative = inhibition": "inactive: -5.27%"}]}]}
